Results on 99 compounds are retold here after article PMC6919601, “Identification of Plasmodium dipeptidyl aminopeptidase allosteric inhibitors by high throughput screening” (PLoS ONE, 2019).

Where “and” joins values, the source holds several entries; their conditions need not be identical. Identical values can stand only once. The campaign covered roughly 110,000 compounds. About 230 (0.21%) showed an effect of 50% or more. The list shows a part of the results.
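Further: 30 min substrate incubation versus DMSO and 10 µM JCP410 controls.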

In this assay the target is DPAP1 (Plasmodium falciparum, UniProt Q8IIJ9). Description: primary screen, percent inhibition; read by cleavage of a fluorogenic dipeptide substrate; higher = more effect of the substance. Details: species or system P. falciparum D10 trophozoite lysates; single well.
DPAP1, sequence (Q8IIJ9 whole entry, looked up): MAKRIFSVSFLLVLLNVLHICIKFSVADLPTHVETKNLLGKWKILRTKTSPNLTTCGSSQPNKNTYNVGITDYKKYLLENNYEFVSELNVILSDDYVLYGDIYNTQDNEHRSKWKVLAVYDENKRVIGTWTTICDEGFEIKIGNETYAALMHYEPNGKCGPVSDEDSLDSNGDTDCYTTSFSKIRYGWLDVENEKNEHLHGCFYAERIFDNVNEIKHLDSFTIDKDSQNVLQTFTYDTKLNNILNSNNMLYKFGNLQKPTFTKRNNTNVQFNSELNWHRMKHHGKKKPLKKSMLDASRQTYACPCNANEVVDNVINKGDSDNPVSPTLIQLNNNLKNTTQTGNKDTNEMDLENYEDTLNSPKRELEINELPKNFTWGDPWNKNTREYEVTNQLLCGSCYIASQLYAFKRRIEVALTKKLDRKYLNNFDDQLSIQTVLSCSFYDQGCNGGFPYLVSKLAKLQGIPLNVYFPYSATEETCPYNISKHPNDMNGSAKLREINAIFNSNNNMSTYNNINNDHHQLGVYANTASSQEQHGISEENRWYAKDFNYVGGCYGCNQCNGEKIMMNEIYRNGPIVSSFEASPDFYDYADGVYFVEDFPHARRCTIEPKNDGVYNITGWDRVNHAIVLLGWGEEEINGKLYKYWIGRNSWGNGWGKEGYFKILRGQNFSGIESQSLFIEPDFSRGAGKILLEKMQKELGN
For the compound `COc1ccccc1CNC(=O)C1CCC(CNS(=O)(=O)c2cccc3cccnc23)CC1` (stereo not drawn), the “% Inhibition @ 10 uM” value is -4.44%.

As for `Cc1noc(C)c1S(=O)(=O)N1CCC(C(=O)N(CCO)Cc2ccccc2)CC1`, the “% Inhibition @ 10 uM” value was found to be 2.55%. For `COCCN1C(=O)c2ccccc2C(C(=O)NC2CCCCC2)C1c1cn(C)c2ccccc12` (stereo not drawn) the value was 3.51%. Next, `O=C(NCCc1ccc(Cl)cc1)C(NS(=O)(=O)c1cccs1)c1ccccc1` (stereo not drawn): -4.79%.

In the case of `NC(=O)C1CCN(Cc2cccc(Cl)c2Cl)CC1`, the “% Inhibition @ 10 uM” value was found to be 0.217%. For `CCOC(=O)c1cc(Br)ccc1-c1ccc(/C=C2\C(=O)NC(=O)C(C#N)=C2C)o1` the value was 2.17%; for `O=C(NCCN1CCOCC1)c1cc(-c2ccc(Cl)c(Cl)c2)nc2ccccc12`, 2.03%; for `COc1ccc(-c2csc3ncn(C(C)C(=O)O)c(=O)c23)cc1OC` (stereo not drawn), -2.98%. For `COc1cc(OC)cc(C(=O)N2CCN(Cc3ccc(F)cc3)CC2)c1` the value was 0.361%; for `O=C(NC1CC1)c1ccc(COc2c(F)c(F)cc(F)c2F)o1`, -5.07%; for `CC(C)c1ccc(/C=C/c2cc(=O)n3ccsc3n2)cc1`, -2.23%. For `Cc1c(C(c2cc3c(cc2Cl)OCO3)c2c(C)n(C)n(-c3ccccc3)c2=O)c(=O)n(-c2ccccc2)n1C`, the “% Inhibition @ 10 uM” value was -1.5%.

With `CC1=C(C(=O)Nc2cccc(C)c2)C(c2ccc(O)cc2)NC(S)=N1` (stereo not drawn), the “% Inhibition @ 10 uM” value is -5.94%.

`CC(C)=C1C2C=CC1C1C(=O)N(c3cc(Cl)ccn3)C(=O)C21` (stereo not drawn): the “% Inhibition @ 10 uM” value came out at 0.317%. Next, `O=[N+]([O-])c1ccc(N2CCSCC2)nc1`: 0.162%; `CCOc1ccc(C(=O)NCc2ccccn2)cc1`: -1.44%; `COc1ccc(OC)c(-c2cc(C(=O)NCc3ccc(F)cc3)no2)c1`: -2.55%. For the compound `COc1ccc(S(=O)(=O)N(C)CC(=O)NCc2cccnc2)cc1`, the “% Inhibition @ 10 uM” value is reported as 2.78%. For `Cc1ccc(-c2ccc(=O)n(CC(=O)N3CC(C)CC(C)C3)n2)cc1` (stereo not drawn) the value was -2.99%; for `Cc1cccc(-c2c3c(=O)n(C)c(=O)n(C)c3cn2-c2cccc(C#N)c2)c1`, 3.62%. Next, `CCc1ccc(N2C(=O)C(Cl)=C(N3CCOCC3)C2=O)cc1`: -4.76%.

`CN(C)c1ccc(NC(=O)Cn2cnc3c2c(=O)n(C)c(=O)n3C)cc1`: the “% Inhibition @ 10 uM” value is reported as -8.33%. Next, `CNC(=O)c1c(NC(=O)c2ccco2)sc2c1CCC(C(C)(C)C)C2` (stereo not drawn): 0.777%. For `COc1ccc(CNCCc2c(C)[nH]c3ccc(OC)cc23)c(F)c1` the value was 1.64%; for `C=Cc1ccc(Cn2c(C(=O)O)c(CNC3CCCCCC3)c3ccc(C)cc32)cc1`, -0.356%; for `Cc1ccc(C(=O)C2=C(O)C(=O)N(CCCn3ccnc3)C2c2ccc(C)cc2)cc1` (stereo not drawn), -3.45%. For `Cc1ccnc(N2C(=O)c3ccc(Oc4ccc5c(c4)C(=O)N(c4cc(C)ccn4)C5=O)cc3C2=O)c1` the value was 0.997%; for `O=S(=O)(c1ccc(Br)cc1)N1CCSC1c1ccc(Cl)cc1` (stereo not drawn), -1.82%; for `CN(Cc1ccccc1)C(=O)c1cc(-c2ccc(Cl)cc2)[nH]n1`, 6.73%.

Turning to `CC1CCN(S(=O)(=O)c2ccc(Oc3ccc(S(=O)(=O)N4CCC(C)CC4)cc3)cc2)CC1`, the “% Inhibition @ 10 uM” value was determined as 3.66%. Regarding `O=C(ON1C(=O)c2cccc3cccc(c23)C1=O)c1ccccc1F`, the “% Inhibition @ 10 uM” value is -6.55%.

For the compound `CN(Cc1ccccc1)C(=O)CN1CCN(Cc2ccc(Cl)cc2)C1=O`, the “% Inhibition @ 10 uM” value is -0.704%. For `CCCC(=O)NC(c1ccc(C)cc1)c1cc(Cl)c2cccnc2c1O` (stereo not drawn) the value was 3.6%. With `COc1cccc(OCCCN2CCCC2)c1`, the “% Inhibition @ 10 uM” value is 3%. For `CC(Sc1nc(-c2ccccc2)cc(C(F)(F)F)n1)C(=O)Nc1cccnc1` (stereo not drawn) the value was -3.92%; for `CC(C)(C)c1ccc(/C=C/C(=O)N2CCOCC2)cc1`, -1.33%. Next, `CCCCN(C)C(C)CCc1ccc(O)cc1` (stereo not drawn): -4.14%; `CCN1CCN(C(=O)c2c(-c3ccccc3)noc2C)CC1`: 6.82%. For `CCOC(=O)C1=C(N)Oc2ccc3ccccc3c2C1c1cccnc1` (stereo not drawn) the value was 1.26%; for `Cc1cc(C)c(-c2c(O)c3c(n(C)c2=O)CC(C)(C)CC3=O)c(C)c1`, 0.674%; for `O=C1CC(c2ccccc2Cl)NC(NC(=O)c2cccnc2)=N1` (stereo not drawn), -6.87%.

Turning to `CN1C(=O)CC2CC1(C)Oc1ccccc12` (stereo not drawn), the “% Inhibition @ 10 uM” value is 6.23%. Next, `CCOC(=O)c1cc2c(OC)ccc(OC)c2n1CC(=O)c1ccccc1`: 3.24%; `O=C(NCc1cccnc1)c1ccccc1Br`: 0.467%. As for `O=C(O)CCCNc1ncnc2c1ncn2C1OC(CO)C(O)C1O` (stereo not drawn), the “% Inhibition @ 10 uM” value was determined as 1.21%. Next, `Cn1nnnc1SCCNCC#Cc1ccccc1`: -1.71%; `O=C(CSc1nnc(C2COc3ccccc3O2)o1)N1CCOCC1` (stereo not drawn): 1.3%. For `COc1ccc(-c2nc(CS(=O)(=O)CC(=O)NCc3cccnc3)c(C)o2)cc1` the value was -5.58%. Next, `Cc1nc2ccccc2n1CC(=O)NCCCN1CCOCC1`: 3.91%; `Brc1ccccc1OCCOCCN1CCCC1`: -3.74%; `O=C(NCc1ccc(F)cc1)c1ccc(CNc2c(N3CCOCC3)c(=O)c2=O)cc1`: 2.76%.

Regarding `O=C(/C=C/c1ccccc1)NCc1ccc(Cl)cc1`, the “% Inhibition @ 10 uM” value was 0.0792%. `COc1cc(-c2nc3ccccn3c2/N=C/c2cccc(OC)c2O)ccc1O`: the “% Inhibition @ 10 uM” value stood at 13.2%.

For the compound `O=C(NCC1CCCO1)c1nnc(O)c2ccccc12` (stereo not drawn), the “% Inhibition @ 10 uM” value was determined as 2.29%. Next, `COc1cccc(C2CC(=O)NC(SC)=C2C#N)c1` (stereo not drawn): 4.38%; `N#CCNC(=O)[C@H](Cc1c(F)cc(Br)cc1F)NC(=O)OCc1ccccc1`: -6.56%; `Cc1cc(C)c(C(N)=O)c(Nc2ccc3c(c2)OCCO3)n1`: 0.475%. Next, `CCCCN(CC)CCNC(=O)Cn1ncc2c3ccccc3n(CCC)c2c1=O`: -0.48%; `Cc1cccc(-n2c(-c3ccco3)nc3ccccc3c2=O)n1`: -3.54%.

On to `CC1CCCC(NC(=O)c2ccc(CS(=O)(=O)Cc3ccc(Cl)cc3)o2)C1C` (stereo not drawn), for which the “% Inhibition @ 10 uM” value is on record as 0.387%. As for `COc1ccc2c(CNCC(C)c3ccccc3)c(C(=O)O)n(Cc3ccccc3C)c2c1` (stereo not drawn), the “% Inhibition @ 10 uM” value is -8.85%. On to `c1ccc(C2(CNc3ccccn3)CCCC2)cc1`, for which the “% Inhibition @ 10 uM” value was 2.78% and -2.36%. Next, `COc1ccc(-c2nnc(SCC(N)=O)n2C)cc1OC`: -3.1%; `C(#Cc1ccc(C#CCN2CCCCC2)cc1)CN1CCCCC1`: -2.44%; `O=C(Nc1cccnc1)C1CCCN(S(=O)(=O)c2ccc3nc(O)ccc3c2)C1` (stereo not drawn): -4.06%. For `CC(=O)Nc1sc2c(c1C(c1ccc(OC(F)F)cc1)N1CCOCC1)CCCC2` (stereo not drawn) the value was 2.45%; for `Cc1nc2c(c(C)c1CCC(=O)N1CCC(N3CCCCC3)CC1)c(=O)n(C)c(=O)n2C`, -6.91%; for `CCCC(Nc1ccccc1)N1C(=O)CCC1=O` (stereo not drawn), 5.24%. Next, `c1ccc(CNc2nnnc3c2sc2nc(N4CCOCC4)c4c(c23)CCCC4)cc1`: -1.11%; `CCOC(=O)c1conc1-c1sccc1C`: -3.86%; `CC(C)/C=C1\CC/C(=C\c2ccccn2)C1=O`: 6.89%.

Take `N#CCCN1CCN(S(=O)(=O)c2ccc(S(=O)(=O)NC3CC3)cc2)CC1`: the “% Inhibition @ 10 uM” value worked out at 3.25%.

Regarding `O=S(=O)(Nc1cccc(F)c1)c1ccc(Cl)cc1`, the “% Inhibition @ 10 uM” value is -2.63%.

Turning to `O=C(NC1CCCc2ccccc21)c1oc(=O)c2ccccc2c1-c1ccccc1` (stereo not drawn), the “% Inhibition @ 10 uM” value came out at 1.9%. Next, `CCOC(=O)C1=C(C)NC(=O)NC1C` (stereo not drawn): -5.9%. Next, `Cc1cc(C(=O)Nc2cc(C)n(Cc3ccc(Cl)cc3)n2)no1`: -0.591%.

On to `O=C(CSCc1ccc(F)cc1)NCc1ccc(F)cc1Cl`, for which the “% Inhibition @ 10 uM” value is 3.79%. Take `CCOc1ccc2noc3c2c1C(=O)c1ccccc1-3`: the “% Inhibition @ 10 uM” value is 2.94%. For the compound `C=CCC1N(c2ccccc2Cl)C(=O)C2C(C(=O)O)C3C=CC21O3` (stereo not drawn), the “% Inhibition @ 10 uM” value is given as -0.949%.

Turning to `COc1ccc(CNc2nc(-c3cccnc3)nn2S(C)(=O)=O)cc1`, the “% Inhibition @ 10 uM” value was determined as 0.558%.

As for `CCOC(=O)C1=C(O)/C(=C\c2ccc(F)cc2)N=C1C`, the “% Inhibition @ 10 uM” value was -0.292%. Next, `Cc1cccc(NC(=O)c2cccc(S(=O)(=O)Nc3ccccc3C)c2)c1`: -0.0369%. With `CC(C)OCCCNC(=O)CCC(=O)n1ncc2ccc(Cl)cc21`, the “% Inhibition @ 10 uM” value was 6.7%. For `O=C1Cn2c3c(c4cccc(c42)N1)CN(Cc1ccccc1)CC3` the value was 4.37%; for `Cc1ccc(CNS(=O)(=O)c2ccc(CCN3C(=O)c4cccnc4C3=O)cc2)o1`, -8.79%; for `O=C(CSc1nc2ccccc2c2nc3ccccc3n12)NCc1ccco1`, -2.21%. Next, `Cc1ccc(-n2ncc(C(=O)N3CCC(C)CC3)c2C2CCN(C(=O)OC(C)(C)C)CC2)cc1`: 6.68%. Next, `COc1ccc(N2C(=O)CC(NCC(O)c3ccccc3)C2=O)cc1` (stereo not drawn): 2.84%; `CCn1c2ccccc2n2c(SCCOc3ccccc3)nnc12`: 1.23%; `CCOC(=O)c1c(C)[nH]c(C)c1S(=O)(=O)NC(CC)CN1CCOCC1` (stereo not drawn): -0.342%. As to `CCCCO/C(O)=C1\C(C)=NC2=C(C(=O)CCC2)C1c1ccc(O)c(OCC)c1` (stereo not drawn), the “% Inhibition @ 10 uM” value was 18%. For `CCOc1ccc(C2c3c(oc4ccc(F)cc4c3=O)C(=O)N2c2nc(C)c(C(C)=O)s2)cc1` (stereo not drawn) the value was -3.13%; for `Cc1ccc(-c2onc(C)c2C)cc1S(=O)(=O)NCCc1sccc1C`, -5.48%; for `COc1ccccc1C(=O)N1CCC(c2nc(-c3ccc(S(=O)(=O)N4CCCC4)cc3)no2)CC1`, 2.05%. Turning to `O=C1CC(c2ccccc2C(F)(F)F)c2c(c3ccccc3oc2=O)O1` (stereo not drawn), the “% Inhibition @ 10 uM” value was 1.32%. As to `CCC(C)NC(=O)CCN1C(=O)c2ccccc2C1=O` (stereo not drawn), the “% Inhibition @ 10 uM” value is -3.78%. Next, `CC(C)C(NCCC(O)c1ccc(Br)cc1)C(=O)O` (stereo not drawn): -4.14%. For `COc1ccc(CNC2=NC(=O)CC(C(=O)Nc3cc(C)cc(C)c3)S2)cc1` (stereo not drawn) the value was 17.2%; for `CSCCC(NC(=O)C1CCC(C)CC1)C(=O)NCCc1ccccc1` (stereo not drawn), -2.49%.
